From PubChem BioAssay AID1454 (National Center for Advancing Translational Sciences (NCATS), 2008) come the findings set out here.

Each structure is given as a SMILES string. In all, about 130,000 compounds went through this assay and about 550 (0.42%) were called active. About 4% were inconclusive and are not listed. The call rests on the fitted dose curve; in most records, active means well fitted inhibition curve with a large enough effect; inconclusive means small, poorly fitted or top-dose-only effect, or effect the other way; inactive means flat fitted curve, though single readings scatter. The entries are a selection whose mix differs from that of the whole data set.
Potency means the concentration at half of the fitted maximal effect.

A short description of this test: qHTS Assay for Inhibitors of the ERK Signaling Pathway using a Homogeneous Screening Assay; Stimulation with EGF. Further: nearly all actives have a fitted effect of over 55% in size.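 On activity change, negative = inhibition: plate controls were stimulated vehicle wells for no effect and unstimulated vehicle basal for full effect.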 The settings on record: HEK293-V1b, EGF-stimulated phospho-ERK AlphaScreen; activity change, negative = inhibition: at the top concentration. Summed up: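 Cell line HEK293 (stable V1b), low serum overnight. Pretreatment: compound 30 min, 37C. EGF 25 nM, 5 min. Detection: SureFire AlphaScreen, 5 h RT. AC50 via standard Hill equation.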
For orientation: In qHTS, concentration-response curves come from the screen itself.
In the case of `COC(=O)[C@@H]1C[C@@]2(O)[C@@H](O)[C@@H](O)[C@@H](O)C[C@H]2N1Cc1ccc(N2CCOCC2)cc1`, the “activity change, negative = inhibition” value is inactive: 1.75%. The same measure, in the same setting: the same measure for `C=C1/C(=C\C=C2/CCC[C@]3(C)[C@@H]([C@H](C)CCCC(C)(C)O)CC[C@@H]23)C[C@@H](O)C[C@@H]1O`: inactive: -7.36%; for `CC1OC(OCC2OC(Oc3c(-c4ccc(O)c(O)c4)oc4cc(O)cc(O)c4c3=O)C(O)C(O)C2O)[C@@H](O)C(O)C1O` (stereo partly drawn): inactive: 26.7%; for `CC[C@H](C)C(=O)O[C@H]1CCC=C2C=C[C@H](C)[C@H](CC[C@@H]3C[C@H](O)CC(=O)O3)[C@H]21`: inactive: -0.958%.

Consider `CCOc1cc(CC(=O)N[C@@H](CC(C)C)c2ccccc2N2CCCCC2)ccc1C(=O)O`, for which the “activity change, negative = inhibition” value was inactive: -11.4% [at 25.7 µM]. On to `O=C(Oc1ccc(Nc2ncnc3ccccc23)cc1)c1cccnc1`, for which the Potency was active: 28.2 µM. Same read-out and setting: the value for `CC(C(=O)O)c1cccc(C(=O)c2ccccc2)c1` (stereo not drawn) was “inactive”.

As for `CC(=O)OC1C[C@]2(C)[C@@H](CC(O)C3[C@]4(C)CCC(O)C(C)[C@@H]4CC[C@]32C)/C1=C(/CCC=C(C)C)C(=O)O` (stereo partly drawn), the “activity change, negative = inhibition” value is inactive: -0.444%. `Cc1ccc(CN2CCN(/N=C\C(Br)=C\c3ccccc3)CC2)cc1`: the “activity change, negative = inhibition” value was inactive: 2.47%. For `Nc1c2c(nc3ccccc13)CCCC2`, the Potency result is “inactive”. On to `C[c-]1[c-](C)[c-](C)[c-](C)[c-]1C.[Fe].c1cc2nccc(N3CCCC3)[c-]2c1` (stereo not drawn), for which the “activity change, negative = inhibition” value is inactive: -1.87% [at 57.5 µM]. Still for that read-out and setting: the value for `CN1C(=O)S/C(=C\c2ccccc2OCc2ccc(C(=O)O)cc2)C1=O` was inactive: -3.26%; that for `CO[C@@H]1C=CO[C@]2(C)Oc3c(C)c(O)c4c(O)c(c(C=NN5CCN(C)CC5)c(O)c4c3C2=O)NC(=O)C(C)=CC=C[C@H](C)[C@H](O)[C@H](C)[C@H](O)[C@H](C)[C@H](OC(C)=O)[C@H]1C` was inactive: 3.64% [at 25.7 µM]. The same measure, in the same setting: the value for `O=c1c(O[C@@H]2O[C@H](CO)[C@@H](O)[C@H](O)[C@H]2O)c(-c2ccc(O)c(O)c2)oc2cc(O)cc(O)c12` was inactive: 0.726% [at 57.5 µM]; that for `CCCCCC(O)c1cccc(OCc2ccc3ccccc3n2)c1` (stereo not drawn) was inactive: 2.35%. In the case of `O=C1C=C(Nc2ccccc2)C(=O)c2ccccc21`, the Potency is active: 25.1 µM. For `O=C(Nc1ccc(CN2CCOCC2)cc1)c1ccc(-c2ccc(Cl)cc2Cl)o1`, the Potency is active: 25.1 µM.

Take `Cc1c(N2C(=O)/C(=C/C3CC=CCC3)SC2=S)c(=O)n(-c2ccccc2)n1C` (stereo not drawn): the “activity change, negative = inhibition” value was inactive: 1.12% [at 57.5 µM]. In the case of `C=CC[n+]1ccc(/C=C2\C=Cc3cc(C)ccc3N2CC)c2ccccc21`, the Potency is active: 14.1 µM.

For the molecule `CNCCCC12CCC(c3ccccc31)c1ccccc12`, the Potency result was “inactive”. Take `Cc1coc2c1C(=O)C(=O)c1c-2ccc2c1CCCC2(C)C`: the “activity change, negative = inhibition” value is inactive: -22%. In the case of `Cn1c(N)c(C(=O)COC(=O)c2cc(C3CC3)nc3ccccc23)c(=O)n(C)c1=O`, the “activity change, negative = inhibition” value was inactive: 8.6%. `COc1ccc(-c2nc(C#N)c(NCCc3ccccc3)o2)cc1`: the Potency is active: 28.2 µM. For `CCCCC[C@H](O)/C=C/[C@H]1[C@H](O)CC(=O)[C@@H]1C/C=C\CCCC(=O)O`, the “activity change, negative = inhibition” value is inactive: -25.7%. The same measure, in the same setting: the same measure for `CCOc1ccc(N/C(C)=C/C(=O)c2ccc3c(c2)OCCO3)cc1`: inactive: 0.441% [at 57.5 µM]; for `CC1=C(C(=O)O)N2C(=O)C(NC(=O)C(N)c3ccccc3)C2SC1` (stereo not drawn): inactive: 22.3%. As to `NC1CONC1=O` (stereo not drawn), the Potency entry is “inactive”. `O=C(C1=C[C@@H](c2ccc(Br)cc2)C[C@@H](OCc2ccc(CO)cc2)O1)N1CCOCC1`: the “activity change, negative = inhibition” value was inactive: -11.1% [at 57.5 µM]. Take `Cc1ncc([N+](=O)[O-])n1CC(C)O` (stereo not drawn): the Potency result was “inactive”. As for `CC(=O)O[C@H]1CC[C@H]2[C@@H]3CCc4cc(O)ccc4[C@H]3CC[C@]12C`, the “activity change, negative = inhibition” value was inactive: -8.52% [at 57.5 µM]. For the molecule `O=C(O)c1ccc2cc(-c3ccc(O)c(C45CC6CC(CC(C6)C4)C5)c3)ccc2c1`, the Potency was active: 25.1 µM. Regarding `Oc1ccc(-c2nc(-c3ccc(F)cc3)c(-c3ccncc3)[nH]2)cc1`, the “activity change, negative = inhibition” value is inactive: 4.43%.

On to `O=C(NCc1ccccc1)C1=C[C@H](c2csc3ccccc23)C[C@H](OCc2ccc(CO)cc2)O1`, for which the “activity change, negative = inhibition” value was inactive: -5.22% [at 57.5 µM]. For `CC1=NN(c2ccccc2)C(=O)/C1=C\c1cn(C)c2ccccc12`, the Potency is active: 14.1 µM. On to `O=C(CCCN1C(=O)/C(=C\c2ccccc2)SC1=S)Nc1ccccc1O`, for which the “activity change, negative = inhibition” value was inactive: 13.8% [at 57.5 µM]. Take `COc1cc(/C=N/Nc2nc(-c3ccc(S(=O)(=O)N(C)C)cc3)cs2)ccc1O`: the Potency is active: 8.91 µM. Take `N#C/C(=C\c1ccc(O)c(O)c1)C(=O)NCCCc1ccccc1`: the “activity change, negative = inhibition” value is inactive: -2.78%.

Take `CC(C)OC(=O)C(C)(C)Oc1ccc(C(=O)c2ccc(Cl)cc2)cc1`: the Potency entry is “inactive”.

Regarding `C[C@@H](CCc1ccc(O)cc1)NCCc1ccc(O)c(O)c1`, the Potency entry was “inactive”. `CC[C@H]1OC(=O)[C@H](C)[C@@H](O[C@H]2C[C@@](C)(OC)[C@@H](O)[C@H](C)O2)C(C)[C@@H](O[C@@H]2O[C@H](C)C[C@H](N(C)C)[C@@H]2O)[C@](C)(OC)C[C@@H](C)C(=O)[C@H](C)[C@@H](O)[C@]1(C)O` (stereo partly drawn): the “activity change, negative = inhibition” value was inactive: 0.137%. In the case of `Nc1nc(Cl)nc2c1ncn2[C@@H]1O[C@H](CO)[C@@H](O)[C@H]1O`, the “activity change, negative = inhibition” value was inactive: -12.8% [at 57.5 µM]. Same read-out and setting: the same measure for `CCC[C@@H]1C[C@@]1(CCC)[C@@H](NP(=O)(c1ccccc1)c1ccccc1)c1ccc(C(=O)OC)cc1`: inactive: 12.1%.

As for `c1ccc2c(CC3=NCCN3)cccc2c1`, the “activity change, negative = inhibition” value is inactive: 6.01%.
